According to ChEMBL document CHEMBL4888484, “Replenishing the malaria drug discovery pipeline: Screening and hit evaluation of the MMV Hit Generation Library 1 (HGL1) against asexual blood stage Plasmodium falciparum ,using a nano luciferase reporter read-out” (2022):
Screen size: about 150,000 compounds; about 540 (0.36%) showed an effect of 50% or more. The list shows a part of the results.

Tested on: Plasmodium falciparum
Experiment: Primary screen in NF54 nanoGlo assay, in single point, at 2uM, 72h; a lower Z score goes with more inhibition
Assay type: functional, Erythrocyte
Settings: timepoint 72 hour

Cc1cc(N2CCN(C(=O)C(C)(C)C)CC2)nc(N2CCOCC2)n1 was tested. Which “% Inhibition” value did it give?
The value was -9%.

And the Z score?
Its Z score is 1.57.

With COc1ccc(OCc2cc(C(=O)NC3(C(C)C)CC3)n[nH]2)c(Cl)c1 as the compound, how does the “% Inhibition” value read?
The value was -4%.

What about the Z score of the same compound?
The Z score was 0.42.

Which results are given for CO[C@@H](CNC(=O)c1cccc(F)c1F)C(C)(C)C?
% Inhibition: -4%; Z score: 0.52

What does the source list for CC(C)S(=O)(=O)CC(=O)NC1CC2CCC1C2 (centres undefined)?
% Inhibition: -10%; Z score: 0.87

With Cc1nc(C(=O)N2CCc3[nH]c4c(Cl)cccc4c3C2)cs1 as the compound, how does the “% Inhibition” value read?
The value was 9%.

What about the Z score of the same compound?
Its Z score is -1.27.

With Cc1n[nH]c(C)c1CNC(=O)c1ccco1 as the compound, how does the “% Inhibition” value read?
The value was -14%.

What about the Z score of the same compound?
Its Z score is 1.92.

Which “% Inhibition” value does the source give for N#Cc1c(F)c(F)c(F)c(F)c1C#N here?
Its value is -7%.

And the Z score?
Its Z score is 1.11.

Which results are given for C#C[C@H](C)OC(=O)c1cnn(C(C)(C)C)c1?
% Inhibition: 0%; Z score: 0.01

What does the source list for O=C(Cn1ncnn1)NC1(c2cc(C(F)(F)F)ccc2Cl)CC1?
% Inhibition: 0%; Z score: 0.05

c1ccc2nc(-c3nccn3-c3ccc4[nH]nnc4c3)ccc2c1 was tested. Which “% Inhibition” value did it give?
Its value is -15%.

What about the Z score of the same compound?
The Z score was 2.22.

What does the source list for CCc1ccc(CS(=O)(=O)N2CCN(c3cnccc3C)CC2)cc1?
% Inhibition: -8%; Z score: 1.03

How did the “% Inhibition” value turn out when CCNc1nc(C)c(C(=O)N(C)CCOc2c(C)cccc2C)s1 was run?
Its value is 2%.

What about the Z score of the same compound?
The Z score was -0.33.

What does the source list for COc1cccc(NC(=O)Cc2c(C)nc(C)[nH]c2=O)c1?
% Inhibition: -10%; Z score: 0.92

For CC(C)O[C@H]1C[C@@H](NC(=O)c2ccccc2N(C)C)C1, which “% Inhibition” value is on record?
Its value is -5%.

What about the Z score of the same compound?
The Z score was 0.97.

Which results are given for NS(=O)(=O)c1ccc(Br)cc1Cl?
% Inhibition: -10%; Z score: 1.51

What does the source list for Cc1nc2c(cc1C(=O)NCCn1nc3c(cc1=O)CCC3)c(=O)n(C)c(=O)n2C?
% Inhibition: 11%; Z score: -1.45

With CCC(NC1CCCN(C(=O)OC(C)(C)C)CC1)c1ccncc1 (centres undefined) as the compound, how does the “% Inhibition” value read?
Its value is -3%.

And the Z score?
Its Z score is 0.37.

How did the “% Inhibition” value turn out when Cc1cc(CC(=O)NCC2CCN(c3nc4ccccc4o3)CC2)on1 was run?
The value was -15%.

What about the Z score of the same compound?
Its Z score is 2.69.

For O=C(NCC(c1ccc(C(F)(F)F)cc1)N1CCOCC1)C1CC2CCC1C2 (centres undefined), which “% Inhibition” value is on record?
Its value is -10%.

And the Z score?
Its Z score is 1.48.

What does the source list for CCOCc1nc2c(c(N3CC[C@H](NC(C)=O)C3)n1)CCN(C)CC2?
% Inhibition: -16%; Z score: 2.41

Which “% Inhibition” value does the source give for CN(C(=O)OCC(F)(F)F)C1CCCCC1 here?
Its value is 0%.

What about the Z score of the same compound?
Its Z score is 0.05.

What does the source list for Cc1cc(C(F)(F)F)n(C[C@@H](C)CNC(=O)c2cccn3cnnc23)n1?
% Inhibition: -7%; Z score: 1.27

Which results are given for CCCCCOCC(=O)N[C@@H](C)c1cnccn1?
% Inhibition: -10%; Z score: 1.99

For Cc1cc(C)nc(N2CCN(c3nc(N)nc4c3CCNC4)CC2)n1, which “% Inhibition” value is on record?
Its value is -15%.

And the Z score?
The Z score was 1.86.

For Cc1sc(-c2nnc(C(=O)N3CCCCC3)o2)cc1S(=O)(=O)Nc1cccc(F)c1, which “% Inhibition” value is on record?
The value was -14%.

What about the Z score of the same compound?
Its Z score is 2.02.

What does the source list for COC(=O)N1CCN(C(=O)CCN(Cc2ccccc2)C(C)=O)CC1?
% Inhibition: -7%; Z score: 0.71

Which “% Inhibition” value does the source give for CC(C)N(Cc1ccccc1OS(C)(=O)=O)C(=O)NC(C)(C)C here?
Its value is -1%.

And the Z score?
The Z score was 0.15.

Which results are given for Cc1ccc(-c2nc(Cn3cnc4nc5c(cc4c3=O)C[C@@H](C)CC5)c(C)o2)cc1?
% Inhibition: -5%; Z score: 0.64

Which “% Inhibition” value does the source give for COc1ccc(CCS(=O)(=O)NC[C@@](O)(c2ccco2)C2CC2)cc1 here?
Its value is 3%.

And the Z score?
Its Z score is -0.5.

For Cn1nncc1C1(O)CN(c2ccc3nccnc3n2)C1, which “% Inhibition” value is on record?
The value was -7%.

What about the Z score of the same compound?
Its Z score is 1.1.

How did the “% Inhibition” value turn out when C[C@H]1CC(=O)Nc2ccccc2N1C(=O)c1cscn1 was run?
Its value is 30%.

And the Z score?
Its Z score is -3.4.

Which results are given for CS(=O)(=O)[C@@H]1CCCC[C@H]1NC(=O)NC1CCCc2sccc21 (some centres undefined)?
% Inhibition: 6%; Z score: -0.95

CCOc1cc([C@H]2C(C(=O)NCc3ccccc3)=C(C)Nc3ncnn32)ccc1OCc1ccc(Cl)cc1Cl was tested. Which “% Inhibition” value did it give?
Its value is -20%.

What about the Z score of the same compound?
Its Z score is 2.12.

What does the source list for O=C(CCOc1ccc(F)cc1Cl)N1CCNCC1?
% Inhibition: -8%; Z score: 1.52

What does the source list for N#Cc1ccc(OC2CCOCC2)cc1?
% Inhibition: -17%; Z score: 2.09

How did the “% Inhibition” value turn out when O=C(O)c1ccccc1CN1C[C@@H]2Oc3c(F)ccc(F)c3O[C@@H]2C1 was run?
The value was 3%.

And the Z score?
The Z score was -0.58.

Which “% Inhibition” value does the source give for O=C(NC1C2Cc3ccccc3C21)N1CCCC(c2cn[nH]c2)C1 (centres undefined) here?
The value was 0%.

And the Z score?
Its Z score is -0.06.

Cc1cccnc1[C@H](C)NC(=O)c1cc(Cl)c[nH]c1=O was tested. Which “% Inhibition” value did it give?
The value was -8%.

What about the Z score of the same compound?
The Z score was 1.32.

For O=C(CNC(=O)c1occc1Br)Nc1cn[nH]c1, which “% Inhibition” value is on record?
Its value is -9%.

And the Z score?
Its Z score is 1.19.

Which “% Inhibition” value does the source give for N/C(=N\O)[C@H]1CC(=O)N(Cc2ccc3c(c2)OCO3)C1 here?
The value was -16%.

And the Z score?
The Z score was 1.83.

With COc1cccn(CC(=O)N2CCC[C@H](c3nc4ccccc4n3C)C2)c1=O as the compound, how does the “% Inhibition” value read?
The value was -10%.

What about the Z score of the same compound?
Its Z score is 1.62.

With CC1CCC(O)C(C2CCCCN2C(=O)c2cc(Cl)cn2C)C1 (centres undefined) as the compound, how does the “% Inhibition” value read?
The value was -16%.

And the Z score?
Its Z score is 2.11.

What does the source list for COCCNC(N)=NC1CC(c2ccccc2)C1 (centres undefined)?
% Inhibition: 3%; Z score: -0.37

Which results are given for O=C(NC[C@H]1CCCOC1)c1cccc(-c2ccc3c(c2)CCC3=O)c1?
% Inhibition: -16%; Z score: 3.15

What does the source list for COC1(C(F)(F)F)CN(C(=O)NCC(C)(C)c2cccnc2)C1?
% Inhibition: -15%; Z score: 2.4

How did the “% Inhibition” value turn out when Cc1cc(C(=O)NCCCn2ccnn2)c(=O)n(C)c1C was run?
Its value is 1%.

And the Z score?
The Z score was -0.11.

What does the source list for CS(=O)(=O)N1CCC(C(=O)Nc2ccccc2-c2ccccc2)CC1?
% Inhibition: -14%; Z score: 1.8

With CCc1nnsc1C(=O)NCCOc1ccccc1 as the compound, how does the “% Inhibition” value read?
The value was -9%.

What about the Z score of the same compound?
The Z score was 1.1.

For Cn1cccc1CN(C(=O)COc1ccccc1F)C1CC1, which “% Inhibition” value is on record?
Its value is 3%.

What about the Z score of the same compound?
Its Z score is -0.56.

What does the source list for Clc1ccccc1CCn1nnnc1N1CCCOCC1?
% Inhibition: -4%; Z score: 0.84

Which “% Inhibition” value does the source give for Cn1nncc1C(=O)N1CC[C@@H]1Cc1ccccc1 here?
The value was -11%.

What about the Z score of the same compound?
Its Z score is 2.15.

What does the source list for CC(C)(CNC1CCC(Oc2cnccn2)CC1)c1ccccc1 (centres undefined)?
% Inhibition: -7%; Z score: 0.99

Which “% Inhibition” value does the source give for CC(C)[C@H](Cn1ccnn1)NS(=O)(=O)c1ccccc1C#N here?
Its value is 12%.

And the Z score?
Its Z score is -1.54.

What does the source list for COc1ccccc1CNC(=O)CN1N=C(c2ccccc2F)c2cc(Cl)ccc2S1(=O)=O?
% Inhibition: -16%; Z score: 1.5

For O=C1NCCN1C(=O)NCC(c1ccco1)c1ccco1, which “% Inhibition” value is on record?
The value was 10%.

What about the Z score of the same compound?
The Z score was -1.28.

Which results are given for O=C(O)c1cc(Cc2ccc(NC(=O)C(c3ccccc3)c3ccccc3)c(C(=O)O)c2)ccc1NC(=O)C(c1ccccc1)c1ccccc1?
% Inhibition: -1%; Z score: 0.18

Which results are given for Cc1cnc(C(=O)NC[C@H]2CCCN(c3ncnc4[nH]ncc34)C2)cn1?
% Inhibition: -14%; Z score: 1.54

For COc1ccccc1CS(=O)(=O)CCc1cn(C)nn1, which “% Inhibition” value is on record?
Its value is 0%.

And the Z score?
The Z score was -0.04.

CC(C)n1[nH]c(=O)c2c1NC(=O)C[C@@H]2c1ccc2ncccc2c1 was tested. Which “% Inhibition” value did it give?
Its value is 7%.

What about the Z score of the same compound?
The Z score was -0.88.

What does the source list for Cc1ccc(CC(=O)Nc2nc(C)no2)cc1?
% Inhibition: -19%; Z score: 1.96

Which results are given for CC[C@@H](C(=O)N1Cc2cnc(CC(C)C)nc2C1)c1ccccc1?
% Inhibition: -17%; Z score: 1.67

Which results are given for COc1ccc(C(=O)c2ccccc2C(=O)Nc2cn[nH]c2)cc1?
% Inhibition: -8%; Z score: 1.57

For Cc1nc(C(C)(C)NCCc2scnc2C)sc1C, which “% Inhibition” value is on record?
Its value is -2%.

What about the Z score of the same compound?
Its Z score is 0.27.

How did the “% Inhibition” value turn out when Cc1nc(C(=O)N2CC(NC(=O)C3CCC3)C2)ccc1C#N was run?
Its value is -10%.

What about the Z score of the same compound?
Its Z score is 1.41.

How did the “% Inhibition” value turn out when O=C(Cn1cnc2ccccc2c1=O)N1CCN(C(=O)c2cc3n(n2)CCCC3)CC1 was run?
Its value is -7%.

And the Z score?
Its Z score is 1.1.

Which results are given for O[C@H]1CCCc2[nH]nc(-c3ccccc3)c21?
% Inhibition: -6%; Z score: 0.9

Which results are given for CCOC(=O)CCN(Cc1cccnc1)Cn1nc(Cc2ccc(OC)cc2)oc1=S?
% Inhibition: -4%; Z score: 0.63

Which “% Inhibition” value does the source give for CCNC(=O)COc1ccc2c(c1)[C@H](c1cccc(C)c1)N(C(=O)c1ccco1)CC2 here?
Its value is 2%.

And the Z score?
The Z score was -0.19.

How did the “% Inhibition” value turn out when O=C(c1cc(=O)[nH]c2ccccc12)N1C[C@H]2C[C@@H](C1)C1CCCC(=O)N1C2 (some centres undefined) was run?
The value was -7%.

And the Z score?
Its Z score is 0.93.

Which results are given for Cc1nn(-c2nc[nH]n2)c(C)c1Cc1ccc(N)cc1?
% Inhibition: 5%; Z score: -0.61

For CCOc1ccc(NC(=O)Cn2nc3c(N4CCN(c5ccccc5C)CC4)nccn3c2=O)cc1, which “% Inhibition” value is on record?
Its value is -16%.

And the Z score?
The Z score was 1.55.

What does the source list for N#CC1CCC(N2C[C@@H](C#N)[C@H](c3ccccc3)C2)C1 (some centres undefined)?
% Inhibition: 23%; Z score: -3.06
